Measured values from PubChem BioAssay AID1347055 (National Center for Advancing Translational Sciences (NCATS), 2019).
In all, about 54,000 compounds went through this assay and about 120 (0.22%) were called active. This list was built around the results that the source calls inconclusive (neither active nor inactive); the mix of calls is not that of the screen. The call rests on the fitted dose curve; in most records, active means well fitted inhibition curve with a large enough effect; inconclusive means small, poorly fitted or top-dose-only effect, or effect the other way; inactive means flat fitted curve, though single readings scatter. No potency is given beside an inconclusive call; the fits are too rough.

target: Fumarate hydratase, mitochondrial (Homo sapiens) (UniProt P07954); assay: Identification of activators of human fumarate hydratase by quantitative high-throughput screening; conditions: FH coupled MDH/diaphorase resazurin fluorescence, 15 min; activity change, negative = inhibition: at 79.9 µM (top of the series); further: the screen sought activators but most active calls are inhibition curves; nearly all actives have a fitted effect of over 45% in size
Excerpt: Fumarate hydratase (FH) is a metabolic enzyme that is part of the Krebs-cycle, and reversibly catalyzes the hydration of fumarate to malate. Mutations of the FH gene have been associated with fumarate hydratase deficiency (FHD), hereditary leiomyomatosis, renal cell cancer (HLRCC), and other diseases. Currently there are no high-quality small molecule probes for studying human fumarate hydratase. To address this, we developed a quantitative high throughput screening (qHTS) FH assay and screened a total of 57,037 compounds in dose-response. While no inhibitors of FH were confirmed, a series of phenyl-pyrrolo-pyrimidine-diones (12 compounds) were identified as activators of human fumarate hydratase. […] The binding of two compounds from the series to human fumarate hydratase was confirmed by microscale thermophoresis. The low hit rate in this screening campaign confirmed that FH is a "tough target" to modulate, and the small molecule activators of human fumarate hydratase reported here may serve as a starting point for further optimization and development into cellular probes of human FH and potential drug candidates.
For primary high-throughput screen, 3 ul of FH solution (containing 13.33nM human fumarate hydratase, 13.33IU/ml malic dehydrogenase, 0.2mM NAD, 0.067mg/ml diaphorase and 0.067mM resazurin in the assay buffer (50 mM Tris pH 8.0, 5 mM MgCl2, 0.01% Brij 3) was dispensed into each well in a black solid bottom 1536-well assay plate (Greiner Bio-One) using a BioRAPTR FRD dispenser (Beckman Coulter, Brea, CA). A 1536-well pintool dispenser outfitted with 20 nl pins (Wako Automation, San Diego, CA) was used to transfer 20 nL of DMSO-solubilized compound (Cherrypick plates) to each 1536-well assay plate. Each compound was screened at five concentrations: 15 nM, 151 nM, 1.5 uM, 15.4 uM, 76.9 uM. Following compound transfer, plates were incubated in room temperature for 10 minutes. 1 uL of substrate solution containing fumaric acid (160 uM) was dispensed via BioRAPTR FRD to initiate the reaction. Plates were immediately transferred to a ViewLux microplate imager (PerkinElmer, Waltham, MA), and any resulting resorufin fluorescence was measured (exitation/emission, 525/598 nm) at 0 and 15 minutes. The exposure time is 1 second. Fluorescence from each well was normalized using enzyme-free and DMSO-treated control wells on each plate, and changes in fluorescence (delta RFU) were calculated using the difference in fluorescent signal for each well at 15 minutes versus 0 minutes.
On the % scale 0 is the no-effect control and ±100 the full control effect; potency means the concentration at half of the fitted maximal effect; tags describe the fitted curve by direction and shape.

UniProt P07954, sequence (P07954 whole entry, looked up): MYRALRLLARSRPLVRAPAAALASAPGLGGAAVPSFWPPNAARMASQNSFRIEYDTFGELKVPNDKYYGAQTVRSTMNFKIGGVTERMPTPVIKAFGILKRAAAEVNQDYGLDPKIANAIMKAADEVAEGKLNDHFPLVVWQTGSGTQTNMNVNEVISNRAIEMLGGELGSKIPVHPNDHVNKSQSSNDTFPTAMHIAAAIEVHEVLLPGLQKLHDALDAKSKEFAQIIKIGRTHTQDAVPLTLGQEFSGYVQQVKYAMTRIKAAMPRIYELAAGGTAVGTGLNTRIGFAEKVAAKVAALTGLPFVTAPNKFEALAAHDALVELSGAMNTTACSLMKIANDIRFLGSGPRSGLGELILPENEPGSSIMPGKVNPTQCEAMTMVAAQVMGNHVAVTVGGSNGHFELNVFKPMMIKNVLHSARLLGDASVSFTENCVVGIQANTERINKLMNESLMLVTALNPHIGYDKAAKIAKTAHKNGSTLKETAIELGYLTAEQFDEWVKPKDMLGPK

| Structure (SMILES) | Potency | activity change, negative = inhibition |
| --- | --- | --- |
| CCN(CC)CCOc1ccc(Nc2ncc3cc(-c4c(Cl)cccc4Cl)c(=O)n(C)c3n2)cc1 | inactive |  |
| COc1cccc(CNC(=O)c2cc3c(-c4ccccc4F)nn(C)c3s2)c1 | inconclusive [inhibitor, single point] |  |
| COc1ccc(OC)c(CNC(=O)c2ccc(N3Cc4ccccc4Oc4ncccc43)s2)c1 | inconclusive [inhibitor, partial curve, poor fit] |  |
| COc1cc(OC)cc(-c2cc3nc(C)c(CCC(=O)NCCc4cccc(C)c4)c(C)n3n2)c1 |  | inactive: -25% |
| CCOc1ccccc1NC(=O)C1CCN(S(=O)(=O)c2c(C)noc2/C=C/c2ccco2)CC1 |  | inactive: -16.4% |
| CCN(CC)c1ncnc2c1cnn2-c1cc(Cl)ccc1C |  | inactive: -1.86% |
| Cc1ccc(C)c(N2CCN(c3ncnc4c3nc3n4CCCC3)CC2)c1 | inconclusive [inhibitor, partial curve, poor fit] |  |
| Cc1cc(NC(=O)CCc2nc3cccnc3n2-c2ccccc2)ccc1Br |  | inactive: -10.3% |
| CCOc1ccc(-n2cc(-c3ccccc3)c3c(NCCc4ccccc4)ncnc32)cc1 | inconclusive [inhibitor, single point] |  |
| CN1C(=O)C(Cc2c[nH]c3ccccc23)NC1=S (centres undefined) | inconclusive [activator, partial curve] |  |
| Cc1ccc(-c2nn3c(-c4ccccc4C)nnc3c3ccccc23)cc1 | inconclusive [inhibitor, partial curve] |  |
| COc1ccc(NC(=O)c2ccco2)cc1NC(=O)COc1ccc(C)c(C)c1 |  | inactive: 1.59% |
| COc1ccc(CNC(=O)CCNS(=O)(=O)c2ccc3c(c2)oc(=O)n3C)cc1 | inconclusive [inhibitor, partial curve, poor fit] |  |
| Cc1ccc(C)c(N2CCN(C(=O)c3cn(CC(C)C)c(=O)c4c3c3ccccc3n4C)CC2)c1 | inconclusive [inhibitor, full curve, poor fit] |  |
| COc1ccc(C2C(C(=O)Nc3ccccc3)=C(C)Nc3c(C(=O)Nc4ccccc4)cnn32)cc1 (centres undefined) | inconclusive [inhibitor, partial curve] |  |
| CCN(CC)C(=O)Cn1c(=O)cc(C)c2c(C)nn(-c3cccc(Cl)c3C)c21 |  | inactive: -10.4% |
| Cc1ccc(Nc2nc3nonc3nc2Nc2cccc(C(F)(F)F)c2)cc1Cl | inconclusive [inhibitor, partial curve] |  |
| CCOC(=O)C1CCN(c2cc3c(cc2NC(=O)c2ccc(Cl)cc2)n(C)c(=O)n3C)CC1 | active: 20 µM |  |
| CCCN1CCN(c2ncnc3sc(C(=O)Nc4ccc(C(C)C)cc4)c(C)c23)CC1 | inconclusive [inhibitor, single point] |  |
